Measured values: patent US20200377551A1, “PEPTIDE CONSTRUCTS AND METHODS FOR ENHANCEMENT OF INTERFERON PRODUCTION” (Wake Forest University Health Sciences, priority 2019, published 2020)

Experiments:
MAVS [1] = biological target: T1, MAVS (Homo sapiens, UniProt Q7Z434); assay: In vitro MAVS aggregation assay (SDD-AGE); settings: GST-RIG-I(N), K63-Ub4, mitochondria preincubated with lactate (5 mM, 10 mM) or pyruvate
MAVS [2] = biological target: T1, MAVS; assay: Lactate-MAVS binding (biotin-lactate pulldown, immunoprecipitation, in vitro binding)
[3] = assay type: binding
HeLa cells = assay: Immunofluorescence cellular localization of peptides in HeLa cells; settings: HeLa cells pretreated with peptides; MAVS or Tat antibody staining; data not shown
Procedure: Immunofluorescent Confocal Microscopy. Cells were fixed with 3% paraformaldehyde for 20 min at 25° C. and permeabilized for 20 min with 0.5% Tween-20. Samples were blocked with 2% goat serum in phosphate-buffered saline (PBS) for 30 min. Anti-MAVS (1:500, Santa Cruz) and anti-TAT (1:500, Abcam) antibodies were used to detect the MAVS protein and TM peptides, respectively. Staining was visualized with secondary antibodies and the images were captured with a digital camera under a confocal microscope.
This property has been used to deliver large molecules or even small particles into the cells for testing their biological functions by overcoming the lipophilic barrier of the cell membranes. Cellular localization of the control and TM peptides was assessed using the immunofluorescence assay in which HeLa cells were pretreated with the peptides and then stained with MAVS or Tat antibody and then imaged by confocal microscopy. […] The effect of TM peptide on RLR induced type-I IFN production was then determined.

T1 sequence (Q7Z434 2-540 limits assumed): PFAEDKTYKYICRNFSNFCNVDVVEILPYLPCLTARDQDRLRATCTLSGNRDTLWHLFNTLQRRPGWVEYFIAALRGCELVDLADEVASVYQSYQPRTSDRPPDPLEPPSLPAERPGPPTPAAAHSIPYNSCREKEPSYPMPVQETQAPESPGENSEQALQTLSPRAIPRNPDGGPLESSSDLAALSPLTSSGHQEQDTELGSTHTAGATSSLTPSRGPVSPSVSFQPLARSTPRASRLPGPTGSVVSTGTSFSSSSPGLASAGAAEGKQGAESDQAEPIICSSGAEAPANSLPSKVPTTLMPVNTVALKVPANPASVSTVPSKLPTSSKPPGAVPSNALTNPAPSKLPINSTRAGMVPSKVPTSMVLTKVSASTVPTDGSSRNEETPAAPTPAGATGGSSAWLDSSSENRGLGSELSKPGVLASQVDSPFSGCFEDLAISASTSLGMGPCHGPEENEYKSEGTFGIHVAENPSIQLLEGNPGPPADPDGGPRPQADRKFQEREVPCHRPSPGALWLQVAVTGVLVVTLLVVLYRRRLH

Molecule	MAVS aggregation induced by activated RIG-I (MAVS [1])	binding of MAVS in in vitro binding assays (MAVS [2]; in vitro)	lactate pulled down by peptide ([3]; immunoprecipitation with Tat antibody, different doses of peptide)	binding to biotin-lactate ([3]; mass spectrometry of in vitro biotin-lactate pulldown products, data not shown)	entry into cells (HeLa cells)	binding of lactate to MAVS (MAVS [2]; in vitro binding assay, biotin-labeled lactate, MAVS protein translated in vitro, with control or TM peptide)
CC(O)C(=O)O (stereo not drawn) [lactate]	impaired MAVS aggregation in a dose dependent manner	bind to lactate in a dose-dependent manner				
TM peptide: peptide containing MAVS TM domain (514-535aa) with a trans-activator of transcription (TAT) tag placed in its N terminal region (SEQ ID NO:24) (YGRKKRRQRRRAGALWLQVAVTGVLVVTLLVVLY)			specifically pulled down	could bind to biotin-lactate	found to enter into cells	markedly interrupted
